We go through 104 compounds from ChEMBL document CHEMBL4888484, “Replenishing the malaria drug discovery pipeline: Screening and hit evaluation of the MMV Hit Generation Library 1 (HGL1) against asexual blood stage Plasmodium falciparum ,using a nano luciferase reporter read-out” (2022).

Hit rate of the full screen: of about 4,800 compounds, about 420 (8.8%) showed an effect of 50% or more. The list shows a part of the results.

This assay deals with Plasmodium falciparum. As to the kind of experiment: Confirmatory screen in NF54 nanoGlo assay, in single point, at 2uM, 72h. The assay is classed as functional, Erythrocyte. Particulars: timepoint 72 hour.
In the case of `CCNC(=O)c1nc(-c2ccncc2)cs1`, the “% Inhibition” value is recorded as -21%.
To `Cn1c(=O)c2c(ncn2CC(=O)N(Cc2ccccc2)C2CC2)n(C)c1=O` belongs -4%; to `CCNC(=O)CNC(=O)Nc1cnn(C(C)C)c1`, 0%; to `COc1ccc(N2CCN(C(=O)c3ccc(F)cc3)[C@@H](C)C2=O)cc1`, 5%.
For `C[C@@H](C(=O)NCCN1CCCCC1)N1C(=O)COc2ccc(C(=O)COc3ccc(Cl)cc3)cc21`, the “% Inhibition” value was -14%.
As for `O=c1cc2c(nn1Cc1cccc(Cl)c1)-c1ccccc1CC2`, the “% Inhibition” value was -6%.
On to `COc1ccc(CNc2nc(-c3nnc(-c4ccccc4)o3)nc3ccccc23)cc1`, for which the “% Inhibition” value is reported as 55%.
To `O=C(C[C@H]1CCN(S(=O)(=O)c2ccc(F)cc2F)C1)NCc1ccccc1` belongs 5%; to `O=C(O)c1cc2c(cc1C(=O)Nc1ccc(Cl)cc1)=[O+]c1ccccc1-c1ccccc1[O+]=2`, -17%; to `Cc1[nH]c2ccccc2c1C1CCN(C(=O)c2ccc(Br)cc2O)CC1`, -8%.
To `Cc1ccccc1CN(Cc1ccccn1)Cc1ccnn1C` belongs -2%; to `Cc1ccc(NC(=O)CC2CCOCC2)cc1F`, -12%.
To `Fc1cnc(OC2Cc3ccccc3C2)nc1` belongs 57%; to `Oc1ccc(-c2ncc3n2CCCC3)cc1`, 4%.
With `Nc1cc(Cl)c(C(F)(F)F)cc1N`, the “% Inhibition” value is recorded as 2%.
To `Nc1nc(C2CC(N)C2)cc(N2CCC(Oc3ccccc3Cl)CC2)n1` (centres undefined) belongs 51%.
With `O=C(NCCC1=CCOCC1)c1cnc2ccccn12`, the “% Inhibition” value is -5%.
To `O=C(ON1C(=O)CCC1=O)c1cc2ccccc2[nH]1` belongs 3%; to `O=C(Nc1ccc(-n2cncn2)cn1)c1cscn1`, -18%.
For `O=C(CCc1nc(-c2cccc(F)c2)no1)NCc1ccc2c(c1)OCO2`, the “% Inhibition” value came to 4%.
To `O=c1[nH]c2ccccc2c(NCc2ccccc2)c1N1CCN(c2ccccc2)CC1` belongs 5%; to `COC(=O)c1nccc(N2CCc3ccccc3C2)n1`, -4%; to `COCCN(CC1CN(Cc2ccccc2OC)CC1c1ccccc1OC)C(=O)COC` (centres undefined), -2%.
`CCC(C)(C)C(=O)NCC1CCN(S(=O)(=O)C(F)F)CC1`: the “% Inhibition” value is reported as -4%.
The result for `COC(=O)[C@H](C)N(C(=O)CO)c1c(C)cccc1C` reads 6%; that for `COc1cccc(-c2cn(C)c3c(=O)n(CC(=O)Nc4ccccc4Cl)cnc23)c1`, -9%; that for `CC(C)(C)NC(=O)N[C@H]1COc2c1ccc(Cl)c2Cl`, -3%.
The result for `Cc1cc(C)c(N2CCC(NC(=O)C(C)n3cncn3)C2=O)c(C)c1` (centres undefined) reads 0%; that for `FC(F)(F)c1cnc(Cc2ccc(OC[C@H]3CC3(Cl)Cl)cc2)c(Cl)c1`, 5%; that for `Cc1ccc(NC(=O)N2CC(c3nc(C(C)C)nn3C)C2)cc1F`, -7%.
To `CCNC(=O)CN(CC)C(=O)COc1ccc(Cl)c(C)c1` belongs -5%; to `Cn1nccc1CS(=O)(=O)c1ccc(F)c(F)c1`, 0%; to `CC(C)(NC(=O)CC1CCC(F)(F)CC1)c1nc2ccccc2s1`, 2%.
For `Cc1cnn(CC(=O)NC[C@]2(N3CCOCC3)CCOC2)c1`, the “% Inhibition” value was -9%.
In the case of `Cc1ccccc1N1C2=CCCCCN2C[C@]1(O)c1ccc(Br)cc1`, the “% Inhibition” value was found to be 1%.
To `Cc1ccc(F)cc1NC(=O)N1CCC12CCC2` belongs -6%.
The result for `CCC(=O)N1CCc2sc(C(=O)NC3CCN(Cc4ccccc4)CC3)cc2C1` reads -5%; that for `Cc1ccc(C)c(NC(=O)CC(=O)O)c1`, -13%.
Take `Cc1cc(C(=O)NCc2cnn(C)c2C)nc(N2CCOCC2)n1`: the “% Inhibition” value is listed as -9%.
The result for `O=C1C2CCCCC2C(=O)N1c1cnn(Cc2cccc3ccccc23)c1` (centres undefined) reads -6%; that for `Cc1nc(O)ccc1C(=O)N[C@H](c1ccc(Cl)cc1)c1ncon1`, -9%; that for `Cn1ncnc1CNC(=O)NCC1(Cc2ccccc2)CCC1`, -8%.
The result for `O=c1cc(N2CCN(C3CCCC3)CC2)cnn1Cc1ccccc1` reads -13%; that for `CCOc1cc(CNC2CCCCC2)cc(Cl)c1OCc1ccc(C)cc1`, -7%; that for `Cc1c(S(=O)(=O)NCc2cc3c(s2)CCCC3)cnn1C`, 2%.
For `Cc1nc2cc(NC(=O)c3cccs3)ccc2o1`, the “% Inhibition” value was -8%.
The result for `CCn1nc(C)c(C(=O)Nc2cn(C)nc2C(N)=O)c1C` reads -8%.
To `COc1cc(C(=O)NC2CC(C)(C)NC(C)(C)C2)ccc1OCc1ccccc1Cl` belongs 3%.
The result for `Oc1ccccc1CNc1cccc2cccnc12` reads 98%; that for `O=C(C[C@@H]1C(=O)Nc2nc(N3CCOCC3)[nH]c(=O)c21)Nc1ccc(Cl)cc1`, 9%.
As to `O=c1[nH]cnc2c1nc(N1CCCCC1)n2C1OC(CO)C(O)C1O` (centres undefined), the “% Inhibition” value is listed as 6%.
In the case of `O=C(CNC(=O)[C@H]1CC[C@H](CNS(=O)(=O)c2ccccc2)CC1)N1CCN(c2ccccc2)CC1`, the “% Inhibition” value is listed as 4%.
The result for `O=C(NCc1ccco1)[C@H]1CCCN(c2nc3ccccc3n(Cc3ccccc3)c2=O)C1` reads 4%; that for `Brc1cncnc1NC1CC1`, 2%.
The result for `O=C(Nc1ccc(F)cc1)c1c(O)c2cccc3c2n(c1=O)CC3` reads -16%; that for `Cc1cc(CN(C)C[C@@H]2C[C@H]2c2ccccc2)no1`, 4%.
The result for `Cc1ccccc1NC(=O)N1CCN(C(=O)c2nonc2N)CC1` reads -7%; that for `CCn1nccc1[C@@H]1CC(c2cccc(O)c2)=NN1c1ccc(S(N)(=O)=O)cc1`, 5%; that for `Cc1cc(=O)c(C(=O)Nc2cccc(Cl)c2O)c[nH]1`, -10%.
In the case of `N[C@H]1C[C@H](c2cc(NCCCc3cccnc3)nc(C3CC3)n2)C1`, the “% Inhibition” value is reported as 75%.
The result for `CCn1cc(C(=O)Nc2n[nH]c3ccc(C(F)(F)F)cc23)cn1` reads -8%; that for `O=C1CN(C(c2ccccc2)(c2ccccc2)c2ccccc2)CO1`, -7%.
Turning to `Cc1[nH]c(=O)[nH]c(=O)c1NS(C)(=O)=O`, the “% Inhibition” value was found to be 1%.
The result for `COc1ccc(-c2cc3n(n2)C[C@@](C)(C(=O)NCc2ccccc2)N(Cc2ccc4c(c2)OCO4)C3=O)cc1` reads 63%; that for `c1ccc(CCc2nnc3n2CCOC3)cc1`, -4%.
Regarding `CCCOc1ccc(CNC(=O)CCn2ccn3nc(-c4ccc(C)c(C)c4)cc3c2=O)cc1`, the “% Inhibition” value was 0%.
To `Clc1cccc(CNCCCNc2ccncc2)c1Cl` belongs 71%; to `N#CC1(O)C(C2COC3(CCCCC3)O2)OC2OC3(CCCCC3)OC21` (centres undefined), 1%; to `Cc1cc(O)n2nc(N(C)C(=O)C(=O)N3CCN(C)CC3)c(S(=O)(=O)c3ccccc3)c2n1`, 22%.
The result for `CC(NC(=O)C1CCC1)C(=O)Nc1ccn(C(C)c2ccccc2)n1` (centres undefined) reads -4%; that for `O=C(c1cccc(-n2cccn2)n1)N1CCCCCCC1`, -12%.
To `O=C(C[C@H]1CCN(C(=O)Nc2ccc3c(c2)OCCO3)C1)NCc1ccncc1` belongs -1%.
As to `CCn1nc(-n2cnnc2)c(NC(=O)c2cc(Br)ccc2OC)c1C`, the “% Inhibition” value was -10%.
The result for `CCOC(=O)Oc1c(OC)cc(C(=O)Nc2ccc3c(c2)sc(=O)n3C)cc1OC` reads 6%; that for `Cc1noc(C)c1CC(=O)O[C@@H](C)C(=O)Nc1ccc(F)cc1`, -3%.
The result for `Cc1ccc2cnn(CCCNC(=O)c3ccco3)c2c1` reads -12%; that for `CCCN1C(=O)c2ccccc2N2C(=O)CC[C@@]12C(=O)Nc1ccc(OC)cc1`, 92%.
Turning to `CCS(=O)(=O)Nc1ccc(S(=O)(=O)NC[C@@H](c2ccccc2OC)N2CCCCC2)c(C)c1`, the “% Inhibition” value is on record as -1%.
As to `O=C(Nc1ccn(Cc2cccnc2)n1)c1ccc(-c2ccccc2F)o1`, the “% Inhibition” value was -2%.
With `CC(C)(C)OC(=O)N1CCC(c2nc(-c3ccc(F)c(C(F)(F)F)c3)c[nH]2)CC1`, the “% Inhibition” value is given as 0%.
To `O=C(Nc1ncc(CCO)s1)[C@@H]1CCCN1C(=O)Cc1cccs1` belongs 0%.
As to `Cc1ccc(CNC(=O)c2cc3cc(OCc4ccccc4)ccc3n2Cc2ccccc2)o1`, the “% Inhibition” value is reported as -2%.
Take `C(=C\c1cc(/C=C/c2ccccc2)n2nnnc2n1)/c1ccccc1`: the “% Inhibition” value is on record as -3%.
To `CC(=O)Nc1ccc(NC(=O)CCC(C)C)cc1` belongs -9%.
To `CN1CCN([C@H]2CCN(c3ccnc4ccc(Cl)cc34)C[C@H]2CCCO)CC1` belongs 26%; to `CCN1CCC(NC(=O)CCc2c[nH]c3ccccc23)CC1`, 4%; to `Cn1cc2c(n1)CCC[C@@H]2NC(=O)c1cccc(C(=O)NC2CC2)c1`, -4%.
To `CCCN(CC(=O)N(Cc1ccccc1)Cc1ccc(C)o1)C(=O)c1ccco1` belongs -4%; to `CCn1c(C)cc(C(=O)O[C@@H](C)C(=O)Nc2ncccn2)c1C`, -4%.
Regarding `Cc1cc(C(=O)Nc2cncc(Br)c2O)no1`, the “% Inhibition” value was -3%.
For the compound `COc1ccc2nc(C(F)(F)F)nc(N3CCNC(=O)CCN(C(=O)C(F)=C4CCCC4)CC3)c2c1`, the “% Inhibition” value was 5%.
To `Cc1[nH]ccc1C(=O)N1CC[C@]2(CCN(C(=O)OC(C)(C)C)C2)C1` belongs 1%.
For `CCn1cc(Cl)c(-c2nnc(-c3cccc(C(F)(F)F)c3)o2)n1`, the “% Inhibition” value stood at 0%.
The result for `COc1ccc(CNC(=O)c2sc(Nc3ccc(C)cc3C)nc2C)c(OC)c1` reads -10%; that for `CCn1nc(C)cc1NS(=O)(=O)c1ccc2c(c1)C(C)(C)C(=O)N2C`, -16%.
To `CCCc1cc(Nc2ccc(C(=O)NC[C@H]3CCCO3)cc2)n2nc(-c3cccnc3)nc2n1` belongs 29%; to `CN(C(=O)c1ccc(NC(=O)c2cnsn2)cc1Cl)C1CCCCC1`, -20%.
To `COc1ccc(NC(=O)Cn2cnc3nc(N4CCCCC4)ncc3c2=O)c(OC)c1` belongs -1%.
As to `CCOc1ccccc1NC(=O)[C@H]1CCCN(c2nc3cccnc3n(Cc3ccc(C)cc3)c2=O)C1`, the “% Inhibition” value is -2%.
Take `Cc1nn(-c2nc3ccccc3[nH]2)c(O)c1CCC(C)C`: the “% Inhibition” value is on record as 68%.
To `C[C@H]1CCCN(c2nc3ncn(CC(=O)Nc4ccccc4C(F)(F)F)c(=O)c3s2)C1` belongs -15%; to `O=C1C[C@H](c2cccnc2)c2cnn(C3CCCC3)c2N1`, 6%.
To `O=C(Nc1nncs1)c1cccc(C(=O)Nc2nncs2)n1` belongs 68%; to `Cc1ccc2c(c1)nc(-n1nc(C)cc1C)c1nnnn12`, -8%.

For orientation: % Inhibition means the relative decrease from the control value, in per cent.
